# The list shows a part of the results.
# B1: AidA (Burkholderia cenocepacia) (protein)
# chain: MSRVTDVLVSFDTETILKKYPNPSKNPAAPTLIDWRYVYMVTNQDNVISGQAGGELDLKAQVGDLIRWRETSLSLGFENQVVFYKFIGNVGNDLISTPTPRVAEASIPVPNTSKPEVPTCQKVANYYWSSECLKVGRVTYHFQFQIIDRNCQSQGCFSWDPFISIHN
# Experiments:
# Assay in all cases: glycan array binding signal (z-score within array); higher = stronger binding
# Settings in all cases: glycan notation: IUPAC condensed, linker removed
# [1] = target: Gal(b1-3)GlcNAc(b1-2)Man(a1-3)[Gal(b1-3)GlcNAc(b1-2)Man(a1-6)]Man(b1-4)GlcNAc(b1-4)[Fuc(a1-6)]GlcNAc
# Outline: (§1)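 From the Consortium for Functional Glycomics database, 3228 arrays were curated, keeping only those whose protein sequence was available. Binding is given as a within-array Z-score averaged across arrays sharing a protein sequence and across linkers. Negative Z-scores can be read as non-binding.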
# [2] = target: Gal(b1-3)GlcNAc(b1-2)Man(a1-3)[GlcNAc(b1-4)][Gal(b1-3)GlcNAc(b1-2)Man(a1-6)]Man(b1-4)GlcNAc(b1-4)GlcNAc
# Outline: as §1
# [3] = target: Gal(b1-3)GlcNAc(b1-2)[Gal(b1-3)GlcNAc(b1-6)]Man(a1-6)[Gal(b1-3)GlcNAc(b1-2)Man(a1-3)]Man(b1-4)GlcNAc(b1-4)GlcNAc
# Outline: as §1
# [4] = target: Gal(b1-3)GlcNAc(b1-3)Gal(b1-3)GlcNAc
# Outline: as §1
# [5] = target: Gal(b1-3)GlcNAc(b1-3)Gal(b1-4)Glc
# Outline: as §1
# [6] = target: Gal(b1-3)GlcNAc(b1-3)Gal(b1-4)GlcNAc
# Outline: as §1
# [7] = target: Gal(b1-3)GlcNAc(b1-3)Gal(b1-4)GlcNAc(b1-2)Man(a1-3)[Gal(b1-3)GlcNAc(b1-3)Gal(b1-4)GlcNAc(b1-2)Man(a1-6)]Man(b1-4)GlcNAc(b1-4)GlcNAc
# Outline: as §1
# [8] = target: Gal(b1-3)GlcNAc(b1-3)Gal(b1-4)GlcNAc(b1-2)[Gal(b1-3)GlcNAc(b1-3)Gal(b1-4)GlcNAc(b1-6)]Man(a1-6)[Gal(b1-3)GlcNAc(b1-3)Gal(b1-4)GlcNAc(b1-2)Man(a1-3)]Man(b1-4)GlcNAc(b1-4)[Fuc(a1-6)]GlcNAc
# Outline: as §1
# [9] = target: Gal(b1-3)GlcNAc(b1-3)Gal(b1-4)GlcNAc(b1-3)Gal(b1-4)GlcNAc(b1-2)[Gal(b1-3)GlcNAc(b1-3)Gal(b1-4)GlcNAc(b1-3)Gal(b1-4)GlcNAc(b1-6)]Man(a1-6)[Gal(b1-3)GlcNAc(b1-3)Gal(b1-4)GlcNAc(b1-3)Gal(b1-4)GlcNAc(b1-2)Man(a1-3)]Man(b1-4)GlcNAc(b1-4)[Fuc(a1-6)]GlcNAc
# Outline: as §1
# [10] = target: Gal(b1-3)GlcNAc(b1-3)Gal(b1-4)GlcNAc(b1-6)[Gal(b1-3)GlcNAc(b1-3)]Gal(b1-4)Glc
# Outline: as §1
# [11] = target: Gal(b1-3)GlcNAc(b1-3)Gal(b1-4)[Fuc(a1-3)]GlcNAc
# Outline: as §1
# [12] = target: Gal(b1-3)GlcNAc(b1-3)Gal(b1-4)[Fuc(a1-3)]GlcNAc(b1-6)[Gal(b1-3)GlcNAc(b1-3)]Gal(b1-4)Glc
# Outline: as §1
# [13] = target: Gal(b1-3)GlcNAc(b1-3)GalNAc
# Outline: as §1
# [14] = target: Gal(b1-3)GlcNAc(b1-6)Gal(b1-4)GlcNAc
# Outline: as §1
# [15] = target: Gal(b1-3)GlcNAc(b1-6)GalNAc
# Outline: as §1
# [16] = target: Gal(b1-3)GlcNAc(b1-6)[Gal(b1-3)]GalNAc
# Outline: as §1
# Gal(b1-3)GlcNAc6S = target: Gal(b1-3)GlcNAc6S
# Outline: as §1
# [17] = target: Gal(b1-3)[Fuc(a1-4)]GlcNAc
# Outline: as §1
# [18] = target: Gal(b1-3)[Fuc(a1-4)]GlcNAc(b1-2)Man
# Outline: as §1
# [19] = target: Gal(b1-3)[Fuc(a1-4)]GlcNAc(b1-2)Man(a1-3)[Gal(b1-3)[Fuc(a1-4)]GlcNAc(b1-2)Man(a1-6)]Man(b1-4)GlcNAc(b1-4)[Fuc(a1-6)]GlcNAc
# Outline: as §1
# [20] = target: Gal(b1-3)[Fuc(a1-4)]GlcNAc(b1-3)Gal(b1-3)[Fuc(a1-4)]GlcNAc
# Outline: as §1
# [21] = target: Gal(b1-3)[Fuc(a1-4)]GlcNAc(b1-3)Gal(b1-4)[Fuc(a1-3)]GlcNAc
# Outline: as §1
# [22] = target: Gal(b1-3)[Fuc(a1-4)]GlcNAc(b1-6)GalNAc
# Outline: as §1
# [23] = target: Gal(b1-3)[GlcNAc(b1-6)]GalNAc
# Outline: as §1
# [24] = target: Gal(b1-3)[Neu5Ac(a2-6)]GalNAc
# Outline: as §1
# [25] = target: Gal(b1-3)[Neu5Ac(a2-6)]GlcNAc(b1-4)Gal(b1-4)Glc
# Outline: as §1
# [26] = target: Gal(b1-3)[Neu5Ac(b2-6)]GalNAc
# Outline: as §1
# Gal(b1-4)Gal = target: Gal(b1-4)Gal
# Outline: as §1
# [27] = target: Gal(b1-4)GalNAc(a1-3)[Fuc(a1-2)]Gal(b1-4)GlcNAc
# Outline: as §1
# [28] = target: Gal(b1-4)GalNAc(b1-3)[Fuc(a1-2)]Gal(b1-4)GlcNAc
# Outline: as §1
# Gal(b1-4)Glc = target: Gal(b1-4)Glc
# Outline: as §1
# Gal(b1-4)Glc6S = target: Gal(b1-4)Glc6S
# Outline: as §1
# Gal(b1-4)GlcNAc = target: Gal(b1-4)GlcNAc
# Outline: as §1
# [29] = target: Gal(b1-4)GlcNAc(a1-6)Gal(b1-4)GlcNAc
# Outline: as §1
# Gal(b1-4)GlcNAc(b1-2)Man = target: Gal(b1-4)GlcNAc(b1-2)Man
# Outline: as §1
# [30] = target: Gal(b1-4)GlcNAc(b1-2)Man(a1-3)Man(b1-4)GlcNAc(b1-4)GlcNAc
# Outline: as §1
# [31] = target: Gal(b1-4)GlcNAc(b1-2)Man(a1-3)[Gal(b1-4)GlcNAc(b1-2)Man(a1-6)]Man(b1-4)GlcNAc(b1-4)GlcNAc
# Outline: as §1
# [32] = target: Gal(b1-4)GlcNAc(b1-2)Man(a1-3)[Gal(b1-4)GlcNAc(b1-2)Man(a1-6)]Man(b1-4)GlcNAc(b1-4)[Fuc(a1-6)]GlcNAc
# Outline: as §1
# [33] = target: Gal(b1-4)GlcNAc(b1-2)Man(a1-3)[Gal(b1-4)GlcNAc(b1-2)Man(a1-6)][Gal(b1-4)GlcNAc(b1-4)]Man(b1-4)GlcNAc(b1-4)[Fuc(a1-6)]GlcNAc
# Outline: as §1
# [34] = target: Gal(b1-4)GlcNAc(b1-2)Man(a1-3)[Gal(b1-4)GlcNAc(b1-2)Man(a1-6)][GlcNAc(b1-4)]Man(b1-4)GlcNAc(b1-4)[Fuc(a1-6)]GlcNAc
# Outline: as §1
# [35] = target: Gal(b1-4)GlcNAc(b1-2)Man(a1-3)[GlcNAc(b1-2)Man(a1-6)]Man(b1-4)GlcNAc(b1-4)GlcNAc
# Outline: as §1
# [36] = target: Gal(b1-4)GlcNAc(b1-2)Man(a1-3)[GlcNAc(b1-4)][Gal(b1-4)GlcNAc(b1-2)Man(a1-6)]Man(b1-4)GlcNAc(b1-4)GlcNAc
# Outline: as §1
# [37] = target: Gal(b1-4)GlcNAc(b1-2)Man(a1-3)[Man(a1-6)]Man(b1-4)GlcNAc(b1-4)GlcNAc
# Outline: as §1
# [38] = target: Gal(b1-4)GlcNAc(b1-2)Man(a1-6)Man(b1-4)GlcNAc(b1-4)GlcNAc
# Outline: as §1
# [39] = target: Gal(b1-4)GlcNAc(b1-2)Man(a1-6)[GlcNAc(b1-2)Man(a1-3)]Man(b1-4)GlcNAc(b1-4)GlcNAc
# Outline: as §1
binder,measurement,setting,value
B1,glycan array binding signal (z-score),[1],-0.149
same,glycan array binding signal (z-score),[2],0.522
same,glycan array binding signal (z-score),[3],-0.266
same,glycan array binding signal (z-score),[4],0.167
same,glycan array binding signal (z-score),[5],0.229
same,glycan array binding signal (z-score),[6],-0.233
same,glycan array binding signal (z-score),[7],-0.494
same,glycan array binding signal (z-score),[8],0.968
same,glycan array binding signal (z-score),[9],-0.264
same,glycan array binding signal (z-score),[10],-0.359
same,glycan array binding signal (z-score),[11],-0.105
same,glycan array binding signal (z-score),[12],-0.264
same,glycan array binding signal (z-score),[13],-0.553
same,glycan array binding signal (z-score),[14],-0.05
same,glycan array binding signal (z-score),[15],-0.128
same,glycan array binding signal (z-score),[16],-0.573
same,glycan array binding signal (z-score),Gal(b1-3)GlcNAc6S,-0.48
same,glycan array binding signal (z-score),[17],0.331
same,glycan array binding signal (z-score),[18],-0.108
same,glycan array binding signal (z-score),[19],-0.137
same,glycan array binding signal (z-score),[20],-0.101
same,glycan array binding signal (z-score),[21],-0.392
same,glycan array binding signal (z-score),[22],0.516
same,glycan array binding signal (z-score),[23],-0.282
same,glycan array binding signal (z-score),[24],0.097
same,glycan array binding signal (z-score),[25],-0.165
same,glycan array binding signal (z-score),[26],-1.13
same,glycan array binding signal (z-score),Gal(b1-4)Gal,-0.042
same,glycan array binding signal (z-score),[27],0.301
same,glycan array binding signal (z-score),[28],-0.557
same,glycan array binding signal (z-score),Gal(b1-4)Glc,-0.358
same,glycan array binding signal (z-score),Gal(b1-4)Glc6S,0.406
same,glycan array binding signal (z-score),Gal(b1-4)GlcNAc,0.139
same,glycan array binding signal (z-score),[29],-0.503
same,glycan array binding signal (z-score),Gal(b1-4)GlcNAc(b1-2)Man,-0.462
same,glycan array binding signal (z-score),[30],-0.97
same,glycan array binding signal (z-score),[31],0.025
same,glycan array binding signal (z-score),[32],-0.076
same,glycan array binding signal (z-score),[33],0.628
same,glycan array binding signal (z-score),[34],-0.279
same,glycan array binding signal (z-score),[35],-0.325
same,glycan array binding signal (z-score),[36],-0.59
same,glycan array binding signal (z-score),[37],-0.209
same,glycan array binding signal (z-score),[38],0.348
same,glycan array binding signal (z-score),[39],-0.429
